We go through 56 sequences from the supplement of paper PMC11417369.

Some of the results follow.

This experiment deals with PF3D7_0420300 AP2 domain 1 (GST-tagged). Nature of the experiment: gcPBM binding intensity (ln(normalized median fluorescence intensity)); higher = stronger DNA binding. The method in brief:
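Binding intensity is the highest Masliner-normalised natural-log median intensity over replicate spots in either probe orientation. To obtain it, GST-tagged P. falciparum DNA-binding domains made in E. coli were incubated for 1 h on an Agilent 4 × 180k array of primer-extended double-stranded 36-bp intergenic genomic probes plus negative controls. Detection used Alexa488 anti-GST antibody with scanning at 488 nm.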
With “TACTGTTTAAAATATAAACACACATTGTTTGCTTTA [CACACA_site8358]”, the “gcPBM binding intensity (ln)” value was determined as 9.27.

As to “AAAAGGAAAATTTTCTTAGTAACTGCATTAAGAGAT [GTGCAC_negctrl_site675]”, the “gcPBM binding intensity (ln)” value was found to be 9.19.

Turning to “AAGCATATTATAAACACACACTGTATAAAGATATAT [CACACA_site6277]”, the “gcPBM binding intensity (ln)” value is 9.69.

As to “AAGTATAACCTTTATAATAATGACATGACCGATTTT [CACACA_negctrl_site395]”, the “gcPBM binding intensity (ln)” value amounted to 9.33.

As to “ATAATACGAATTTGTAGTACATTTATAATAACATGA [XGTACX_site2614]”, the “gcPBM binding intensity (ln)” value worked out at 9.28.

Turning to “TATAACCGAATGTGTACACAAAATAATGTTATATAT [CACACA_site5627]”, the “gcPBM binding intensity (ln)” value came out at 9.49.

For the sequence “ATATAACGAATAATTACACACTATAAAAAAAGATCT [CACACA_site2862]”, the “gcPBM binding intensity (ln)” value stood at 9.67.

With “TAAAAAACTTCGTGTTCACACATGTACTATATTATT [CACACA_site4796]”, the “gcPBM binding intensity (ln)” value worked out at 9.2.

Take “ACCCATAAGATAATTACACACAATACATCCCTATAT [CACACA_site5262]”: the “gcPBM binding intensity (ln)” value amounted to 9.84.

Turning to “TTTTTTTTTTTTTGTTGTACATTAAATATATTATTA [XGTACX_site7254]”, the “gcPBM binding intensity (ln)” value turned out to be 9.13.

“CACATACACATACACATACACACGCATAGAAACATA [CACACA_site2136]”: the “gcPBM binding intensity (ln)” value turned out to be 9.79.

For “TTGTATAAATATGTATGTATATAATATATGTAAAGA [TGCATGCA_negctrl_site93]”, the “gcPBM binding intensity (ln)” value amounted to 9.4.

For “AAATCGTGTACATTGACACACATAATTTTTTTTATA [CACACA_site2463]”, the “gcPBM binding intensity (ln)” value is 9.4.

Consider “AATATATTTATATAGTGTACATTTTTTATATATGTA [XGTACX_site8142]”, for which the “gcPBM binding intensity (ln)” value turned out to be 9.18.

As to “TATTAATTTTTATTATGTACATAAATAATTTATATT [XGTACX_site5456]”, the “gcPBM binding intensity (ln)” value stood at 9.

As to “TACTATAAAATGGAATGTACACATAAATATATCTAA [XGTACX_site6137]”, the “gcPBM binding intensity (ln)” value was determined as 9.32.

“ATATGATGTAAAAGCACACATATATATATATATATA [CACACA_site4018]”: the “gcPBM binding intensity (ln)” value was determined as 9.15.

In the case of “GTTTATAACTATGTGTGTACACATTAATCGTTTTTC [XGTACX_site4364]”, the “gcPBM binding intensity (ln)” value is 9.66.

In the case of “AAAAAGAAGATATATACACACCAAAAAAAAAAAAAA [CACACA_site7471]”, the “gcPBM binding intensity (ln)” value was found to be 9.45.

For “ATAATATATTATTATAGTACTTTATTTTATTTTATG [XGTACX_site2387]”, the “gcPBM binding intensity (ln)” value is 9.31.

“GGATAGATCATTTACACACACAAAAAAAAAAAAAAA [CACACA_site2139]”: the “gcPBM binding intensity (ln)” value was found to be 9.52.

For “AATATATATATACATACATGCATACATATATATATA [TGCATGCA_site784]”, the “gcPBM binding intensity (ln)” value turned out to be 9.24.

For the sequence “TAAGGAAAAAGAAAAAGTACATTATATAATAAATAG [XGTACX_site3282]”, the “gcPBM binding intensity (ln)” value was determined as 9.2.

In the case of “CAAATATATGTTTTCACACACAAAAGAAATGAAACC [CACACA_site2162]”, the “gcPBM binding intensity (ln)” value came out at 9.81.

Take “AAAAAAAATAAAATGAATAAATAAGAATTACATATT [CACACA_negctrl_site863]”: the “gcPBM binding intensity (ln)” value came to 9.28.

“AAAAAACACGCACATACACACAAAAATGTTATAAAT [CACACA_site6188]”: the “gcPBM binding intensity (ln)” value is 9.87.

Take “TTATATTTTTTAATTACACACAATTTTTATAAATAT [CACACA_site4148]”: the “gcPBM binding intensity (ln)” value amounted to 9.38.

“ATCTCATAAAACCGCACACACATAAAATTTGCATTA [CACACA_site3891]”: the “gcPBM binding intensity (ln)” value stood at 9.69.

For the sequence “CTAGTAAAAAATGCAAGTACATACATTATAAGTATA [XGTACX_site3908]”, the “gcPBM binding intensity (ln)” value came out at 9.41.

Consider “ATATTGGAGCACAACACACACAAGTATAAATATGGA [CACACA_site6834]”, for which the “gcPBM binding intensity (ln)” value was found to be 9.98.

Turning to “ATTTCATATACAAATTGTACATACAATTTTATGTTT [XGTACX_site3240]”, the “gcPBM binding intensity (ln)” value was determined as 9.21.

As to “TTAAAAATAATATTATGTACTAAGAATAAATATATA [XGTACX_site3100]”, the “gcPBM binding intensity (ln)” value was found to be 8.94.

Regarding “TCTTGTAAATATATGTGTATATTATATTTTATTATA [TGCATGCA_negctrl_site117]”, the “gcPBM binding intensity (ln)” value worked out at 9.42.

For the sequence “TGTTAAAATAAAATCTATTACATTTTTATGGTTATA [XGTACX_negctrl_site525]”, the “gcPBM binding intensity (ln)” value amounted to 8.97.

As to “CTTAATATTCTTTAAAGTACACAAAATAAGAATATA [XGTACX_site5489]”, the “gcPBM binding intensity (ln)” value stood at 8.96.

As for “TGCAAGGAAAAACACACACACACATAAATGTATATA [CACACA_site751]”, the “gcPBM binding intensity (ln)” value worked out at 10.1.

Take “TACATAAATTAAAACACACACACACTAATAAAAAAA [CACACA_site8712]”: the “gcPBM binding intensity (ln)” value stood at 10.1.

With “ATATGTATGTATGTATGTACTTATTTATTTATTAAT [XGTACX_site8018]”, the “gcPBM binding intensity (ln)” value came to 9.36.

Turning to “TAGCTCGTTCGGAGCACACACATATATATATATATA [CACACA_site1948]”, the “gcPBM binding intensity (ln)” value came to 9.28.

Consider “GTTTTATTTTGTTTCTATTTGACACATGTGATTATT [CACACA_negctrl_site1246]”, for which the “gcPBM binding intensity (ln)” value turned out to be 9.7.

For the sequence “ATTCAATATATATACACACACACTTTTAATAATTAA [CACACA_site3770]”, the “gcPBM binding intensity (ln)” value is 9.85.

“TTTTTTTTTGAATATTGTACATATATATTACTTTTA [XGTACX_site5520]”: the “gcPBM binding intensity (ln)” value worked out at 9.17.

Consider “AAAAAATTATATAAATGTACATTTTGGCTAGACATG [XGTACX_site5977]”, for which the “gcPBM binding intensity (ln)” value worked out at 9.26.

As for “CATATATATAATTATTCACACAATAGTTAAAAGTAT [CACACA_site5302]”, the “gcPBM binding intensity (ln)” value is 9.4.

Consider “AAAGAGAACAGAAGTACACACATGTTCTTTTAGTAA [CACACA_site5557]”, for which the “gcPBM binding intensity (ln)” value was 9.34.

For the sequence ATATTCTGCTGTTTAGTGCAATTATGAAATTATGAT, the “gcPBM binding intensity (ln)” value was 9.18.

“TTGATTTTTATTTTTAAAATAAATAAATTTCAAATG [TGCATGCA_negctrl_site199]”: the “gcPBM binding intensity (ln)” value amounted to 8.63.

On to “TAAAAAATAAAAATTGCACACTAAAAAATTACCCAC [CACACA_site5823]”, for which the “gcPBM binding intensity (ln)” value turned out to be 9.7.

As for “TAAAAAGAAATGTAAAGTACAAATTTGAATAACATG [XGTACX_site7981]”, the “gcPBM binding intensity (ln)” value is 9.37.

“TTTTTTTTTCTTTGGTGTACAATGTAATAGAAAATA [XGTACX_site227]”: the “gcPBM binding intensity (ln)” value is 8.91.

“AAAAAAAACAAACACACACACAAATATTTATATATT [CACACA_site436]”: the “gcPBM binding intensity (ln)” value turned out to be 10.1.

In the case of “ATATGTATTTATATATGTTTGATTTTTTTTTTTTTT [TGCATGCA_negctrl_site506]”, the “gcPBM binding intensity (ln)” value is 9.32.

As for “AGGAAAAAAGAAAAAACACACATAAATATATATATA [CACACA_site3085]”, the “gcPBM binding intensity (ln)” value was found to be 9.5.

Regarding “AAATGAAATAAAATCATATATTTATAATTATTATAA [TGCATGCA_negctrl_site612]”, the “gcPBM binding intensity (ln)” value is 8.8.

On to “CATACAGACATACATACACACATACCTATAAATATA [CACACA_site6995]”, for which the “gcPBM binding intensity (ln)” value was found to be 9.82.

Turning to “TTTTAATTAAGACACACACACACATATAAATATGTA [CACACA_site7144]”, the “gcPBM binding intensity (ln)” value was found to be 10.
